Data: the supplement of paper PMC4967469
By IC50 is meant the dose at which the fit gives 50% viability; a fit beyond the top or the lowest dose is shown as a bound at that dose. AUC, from the same fit, is the share of area under the viability curve across the 256-fold dose range; the more sensitive the line, the further below 1. For some of these results: A top dose marked as inferred was derived from the fitted curves, not read from the paper.

Columns and labels:
Experiment in all cases: Viability of human cancer cell lines after 72 h of drug (GDSC screen)
Bexarotene = compound: C=C(c1ccc(C(=O)O)cc1)c1cc2c(cc1C)C(C)(C)CCC2(C)C [Bexarotene]; details: top dose 8 µM
Protocol: (§1)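 Human cancer cell lines in 384-well plates, medium with 10% serum, drug for 72 h over a 256-fold dose range (nine 2-fold or five 4-fold steps up to the top dose). Adherent lines were fixed and stained with the nucleic acid dye Syto60, suspension lines read with resazurin; signal relative to control wells, capped at 0 and 100%. One two-parameter sigmoid per drug and line, fitted in a mixed model over all curves with the slope shared within a line.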

NPK76-II-72-1 = compound: COc1cc(C(=O)NC2CCN(C)CC2)ccc1Nc1ncc2c(n1)N(C1CCCC1)C(C)CC(=O)N2C [NPK76-II-72-1]; details: top dose 10.24 µM; top dose inferred
Protocol: as §1

Etoposide = compound: COc1cc([C@@H]2c3cc4c(cc3[C@@H](O[C@@H]3O[C@@H]5CO[C@@H](C)O[C@H]5[C@H](O)[C@H]3O)[C@H]3COC(=O)[C@H]23)OCO4)cc(OC)c1O [Etoposide]; details: top dose 16 µM
Protocol: as §1

YK 4-279 = compound: COc1ccc(C(=O)CC2(O)C(=O)Nc3c(Cl)ccc(Cl)c32)cc1 [YK 4-279]; details: top dose 10 µM
Protocol: as §1

BMS-345541 = compound: Cc1ccc2nc(NCCN)c3ncc(C)n3c2c1 [BMS-345541]; details: top dose 16 µM
Protocol: as §1

AZD7762 = compound: NC(=O)Nc1cc(-c2cccc(F)c2)sc1C(=O)N[C@H]1CCCNC1 [AZD7762]; details: top dose 2 µM
Protocol: as §1

GSK-650394 = compound: O=C(O)c1ccc(-c2c[nH]c3ncc(-c4ccccc4)cc23)cc1C1CCCC1 [GSK-650394]; details: top dose 16 µM; top dose inferred
Protocol: as §1

XAV 939 = compound: Oc1nc(-c2ccc(C(F)(F)F)cc2)nc2c1CSCC2 [XAV 939]; details: top dose 5 µM; top dose inferred
Protocol: as §1

Row | Cell Line | AUC (Bexarotene) | IC50 (Bexarotene) [µM] | AUC (NPK76-II-72-1) | IC50 (NPK76-II-72-1) [µM] | AUC (Etoposide) | IC50 (Etoposide) [µM] | AUC (YK 4-279) | IC50 (YK 4-279) [µM] | AUC (BMS-345541) | IC50 (BMS-345541) [µM] | AUC (AZD7762) | IC50 (AZD7762) [µM] | AUC (GSK-650394) | IC50 (GSK-650394) [µM] | AUC (XAV 939) | IC50 (XAV 939) [µM]
1 | LN-405 (glioma, adherent) | 0.982 | > 8 | 0.983 | > 10.2 | 0.935 | > 16 | 0.907 | > 10 | 0.896 | > 16 | 0.853 | > 2 | 0.976 | > 16 | 0.975 | > 5
2 | LNZTA3WT4 (glioma, adherent) | 0.922 | > 8 | 0.962 | > 10.2 | 0.735 | 4.59 | 0.602 | 1.19 | 0.969 | > 16 | 0.531 | 0.151 | 0.944 | > 16 | 0.969 | > 5
3 | LOU-NH91 (lung squamous cell carcinoma, adherent) | 0.96 | > 8 | 0.958 | > 10.2 | 0.928 | > 16 | 0.767 | 4.04 | 0.972 | > 16 | 0.603 | 0.246 | 0.986 | > 16 | 0.98 | > 5
4 | LS-123 (large intestine, adherent) | 0.944 | > 8 | 0.975 | > 10.2 | 0.676 | 3.67 | 0.92 | > 10 | 0.906 | > 16 | 0.866 | > 2 | 0.838 | > 16 | 0.919 | > 5
5 | LS-180 (large intestine, adherent) | 0.939 | > 8 | 0.956 | > 10.2 | 0.532 | 1.24 | 0.839 | 8.28 | 0.9 | > 16 | 0.855 | 1.97 | 0.761 | 6.45 | 0.977 | > 5
6 | LS-513 (large intestine, adherent) | 0.987 | > 8 | 0.818 | 6.08 | 0.938 | > 16 | 0.817 | 5.89 | 0.881 | > 16 | 0.694 | 0.448 | 0.981 | > 16 | 0.976 | > 5
7 | LS-1034 (large intestine, adherent) | 0.919 | > 8 | 0.877 | > 10.2 | 0.866 | > 16 | 0.798 | 5.35 | 0.884 | > 16 | 0.93 | > 2 | 0.851 | 14.2 | 0.974 | > 5
8 | LU-134-A (small cell lung carcinoma, suspension) | 0.987 | > 8 | 0.642 | 1.63 | 0.363 | 0.408 | 0.906 | > 10 | 0.782 | 7.12 | 0.74 | 0.642 | 0.784 | 7.29 | 0.981 | > 5
9 | LU-135 (small cell lung carcinoma, suspension) | 0.977 | > 8 | 0.708 | 2.19 | 0.262 | 0.242 | 0.968 | > 10 | 0.854 | 9.44 | 0.634 | 0.274 | 0.684 | 2.96 | 0.985 | > 5
10 | LU-139 (small cell lung carcinoma, suspension) | 0.981 | > 8 | 0.575 | 1.09 | 0.71 | 4.7 | 0.854 | > 10 | 0.718 | 5 | 0.928 | > 2 | 0.976 | > 16 | 0.969 | > 5
11 | LU-165 (small cell lung carcinoma, suspension) | 0.984 | > 8 | 0.926 | > 10.2 | 0.822 | 10.9 | 0.936 | > 10 | 0.808 | 9.53 | 0.988 | > 2 | 0.983 | > 16 | 0.978 | > 5
12 | M14 (melanoma, adherent) | 0.92 | > 8 | 0.859 | 9.25 | 0.814 | 9.31 | 0.666 | 1.86 | 0.974 | > 16 | 0.545 | 0.167 | 0.983 | > 16 | 0.985 | > 5
13 | MC116 (B-cell lymphoma, suspension) | 0.961 | 7.43 | 0.937 | 7.78 | 0.934 | 11.9 | 0.69 | 1.79 | 0.808 | 5.54 | 0.738 | 0.467 | 0.967 | 15.9 | 0.999 | > 5
14 | MC-IXC (neuroblastoma, adherent) | 0.919 | 6.27 | 0.748 | 2.58 | 0.169 | 0.15 | 0.671 | 1.62 | 0.91 | 11.6 | 0.498 | 0.124 | 0.945 | > 16 | 0.996 | > 5
15 | MDA-MB-175-VII (breast, adherent) | 0.97 | > 8 | 0.983 | > 10.2 | 0.92 | > 16 | 0.975 | > 10 | 0.914 | > 16 | 0.931 | > 2 | 0.979 | > 16 | 0.986 | > 5
16 | MDA-MB-330 (breast, adherent) | 0.85 | 7.4 | 0.92 | > 10.2 | 0.929 | > 16 | 0.898 | > 10 | 0.917 | > 16 | 0.912 | > 2 | 0.945 | > 16 | 0.978 | > 5
17 | MDA-MB-361 (breast, adherent) | 0.946 | > 8 | 0.949 | > 10.2 | 0.869 | 14.6 | 0.749 | 3.23 | 0.942 | > 16 | 0.738 | 0.593 | 0.871 | 14.8 | 0.968 | > 5
18 | MDA-MB-436 (breast, adherent) | 0.966 | > 8 | 0.93 | > 10.2 | 0.809 | 11.1 | 0.812 | 7.13 | 0.973 | > 16 | 0.803 | 1.31 | 0.976 | > 16 | 0.918 | > 5
19 | MDA-MB-453 (breast, adherent) | 0.924 | > 8 | 0.804 | 5.83 | 0.978 | > 16 | 0.764 | 4.02 | 0.842 | 13.1 | 0.857 | 1.93 | 0.862 | > 16 | 0.984 | > 5
20 | ME-1 (acute myeloid leukaemia, suspension) | 0.969 | > 8 | 0.773 | 4.27 | 0.976 | > 16 | 0.985 | > 10 | 0.814 | 9.53 | 0.913 | > 2 | 0.987 | > 16 | 0.982 | > 5
21 | ME-180 (cervix, adherent) | 0.981 | > 8 | 0.822 | 6.34 | 0.503 | 1.02 | 0.656 | 1.73 | 0.793 | 7.68 | 0.735 | 0.606 | 0.911 | > 16 | 0.981 | > 5
22 | MEG-01 (chronic myeloid leukaemia, suspension) | 0.902 | > 8 | 0.623 | 1.36 | 0.696 | 3.42 | 0.729 | 2.68 | 0.686 | 3.2 | 0.477 | 0.109 | 0.752 | 5.02 | 0.985 | > 5
23 | MEL-JUSO (melanoma, adherent) | 0.956 | > 8 | 0.764 | 4.13 | 0.434 | 0.646 | 0.789 | 4.98 | 0.726 | 4.8 | 0.529 | 0.151 | 0.736 | 5.16 | 0.976 | > 5
24 | MES-SA (uterus, adherent) | 0.992 | > 8 | 0.991 | > 10.2 | 0.358 | 0.433 | 0.511 | 0.665 | 0.825 | 7.79 | 0.767 | 0.639 | 0.705 | 3.4 | 0.99 | > 5
25 | MFE-280 (endometrium, adherent) | 0.982 | > 8 | 0.868 | > 10.2 | 0.883 | > 16 | 0.817 | 7.58 | 0.935 | > 16 | 0.921 | > 2 | 0.945 | > 16 | 0.98 | > 5
26 | MFE-296 (endometrium, adherent) | 0.968 | > 8 | 0.949 | > 10.2 | 0.488 | 0.925 | 0.482 | 0.555 | 0.938 | > 16 | 0.667 | 0.378 | 0.802 | 8.54 | 0.974 | > 5
27 | MFH-ino (soft tissue, adherent) | 0.774 | 3.69 | 0.965 | > 10.2 | 0.469 | 0.81 | 0.793 | 5.46 | 0.906 | > 16 | 0.713 | 0.563 | 0.505 | 1.03 | 0.91 | > 5
28 | MFM-223 (breast, adherent) | 0.985 | > 8 | 0.772 | 3.91 | 0.985 | > 16 | 0.666 | 1.8 | 0.942 | > 16 | 0.734 | 0.575 | 0.989 | > 16 | 0.914 | > 5
